In all, about 150,000 compounds went through this assay and about 540 (0.36%) showed an effect of 50% or more. This is one part of the list.
Tested on: Plasmodium falciparum
Assay: Primary screen in NF54 nanoGlo assay, in single point, at 2uM, 72h; a lower Z score goes with more inhibition
Type: functional, Erythrocyte
Conditions: timepoint 72 hour

Row | Structure (SMILES) | % Inhibition | Z score
1 | CCOCC(=O)N1CCCN(C)c2ccc(F)cc21 | -5% | 0.75
2 | Cc1cc(-n2c(C)cc(C(=O)Nc3ccccc3Oc3ccccc3)c2C)no1 | -8% | 1.57
3 | CC1CCN(C(=O)OC(C)(C)C)C(C)C1NC(=O)CCc1nc(C2CCCC2)no1 (configuration not stated) | -5% | 1
4 | CN(C)c1ccc(/C=C\c2ccnc3c(N)cccc23)cc1 | -26% | 3.09
5 | Cc1cc2ncc(NC(=O)Cc3ccc(F)cc3)cn2n1 | -9% | 1.38
6 | COCCN1C[C@]2(CCCN(c3cc(OC)ncn3)C2)CCC1=O | 1% | -0.21
7 | Cc1sc(C(=O)N2CCCC2)c2ncnc(NCc3ccc(F)cc3Cl)c12 | -2% | 0.34
8 | CCc1cc(NC(=O)NC[C@H]2C[C@@H]2C(F)(F)F)no1 | 4% | -0.68
9 | Cn1cc(CNc2ccc(-c3nncn3C)cn2)cn1 | 18% | -2.4
10 | C[C@H](NC(=O)c1coc(S(=O)(=O)N(C)C)c1)c1ccccn1 | -6% | 0.75
11 | CC(C)Nc1nc(-c2cccc(Cl)c2)c2c(N)n(-c3ccccc3Cl)nc2n1 | 9% | -1.14
12 | O=C(CS(=O)(=O)Cc1ccccc1)Nc1nc(-c2ccc(Cl)cc2)cs1 | -7% | 1.33
13 | O=C(Nc1ccc(OC(F)(F)F)cc1)[C@@H](F)C(F)(F)F | -18% | 3.36
14 | CC(C)CN1CC2(CCN(C(=O)Cn3cnnn3)CC2)CC1=O | -2% | 0.45
15 | COc1cc(-c2ccccc2)ccc1CNc1ccc(C(N)=O)c(C)c1 | -15% | 2.41
16 | CN1CCN([C@H]2CN(Cc3cc(C(C)(C)C)[nH]n3)C[C@@H]2O)CC1 | -10% | 2.07
17 | COc1ccc(CNC(=O)C(=O)Nc2[nH]ncc2C#N)cc1OC | -2% | 0.25
18 | COc1ccc(Cl)cc1CNCCN(C)C | -7% | 0.59
19 | COc1ccc(NC(=O)[C@@H]2COCC(=O)N2Cc2cccs2)cc1 | -1% | 0.06

Row | Structure (SMILES) | % Inhibition | Z score
20 | COc1ccc(NC(=O)c2ccc(NC(=O)CCc3cccnc3)cc2)cc1 | -18% | 2.94
21 | O=C1C(=O)N(CN2CCCCC2)c2cc3c(cc21)OCCO3 | -3% | 0.4
22 | CCS(=O)(=O)N1CCCC(C(=O)NC2CCCC23OCCO3)C1 (configuration not stated) | -3% | 0.35
23 | Cc1ccsc1CNC(=O)N1CCOC[C@@H]1C | 35% | -3.92
24 | O=C(NC1CCC(c2ccc(F)cc2)CC1)c1ccnnc1 (configuration not stated) | -7% | 1.35
25 | CCn1nc(C)c(CN[C@H]2CCCc3c2cnn3-c2ccc(C(C)(C)C)cc2)c1C | 16% | -2.39
26 | CCC[C@H]1C=CCN1C(=O)c1coc(COc2ccc(C)cc2OC)n1 | 1% | -0.14
27 | CC(=O)NC1CCCN(CC(C)CC(C)C)C1 (configuration not stated) | -13% | 1.41
28 | Cc1cnccc1CCNCC1(S(=O)(=O)NC(C)(C)C)CC1 | -19% | 2.41
29 | C[C@@H](C(=O)Nc1ccccn1)n1c(=O)n(CC2CC2)c2ccc(C(=O)O)cc21 | -16% | 1.61
30 | O=C(OCC1CCCCC1)N1CCN(Cc2cnccn2)CC1 | -10% | 1.57
31 | Cn1cnnc1-c1cncc(NC(=O)c2ccc(F)c(Cl)c2F)c1 | -13% | 2.52
32 | Cc1cc(-c2nc(-c3cnn(C(C)(C)C)c3)no2)n[nH]1 | -5% | 0.75
33 | COc1ccc(-c2cnn([C@@H]3CCCCO3)c2)c(OC)n1 | -8% | 1.13
34 | O=C(C1CCC1)N1CCC2(CC1)N[C@@H](Cc1ccccc1)C(=O)N2CCc1ccccn1 | -4% | 0.44
35 | CS(=O)(=O)N[C@H]1CCN(CCc2ccc(F)c(F)c2)C1 | -15% | 1.33
36 | N#Cc1csc(C(=O)N2CCC(NC(=O)c3ccncc3)CC2)c1 | -14% | 2.16
37 | C=CCO[C@@H](C)C(=O)Nc1cnccc1N1CCCCC1 | 2% | -0.22
38 | CC(C)c1noc(-c2ccnc(NC3CCC(C(F)(F)F)CC3)c2)n1 (configuration not stated) | -14% | 1.7

Row | Structure (SMILES) | % Inhibition | Z score
39 | O=C(Nc1ccc(F)cc1)NC1CCOC2(CCOC2)C1 (configuration not stated) | -4% | 0.5
40 | O=C(Cc1cccc(F)c1)N1CCCC12CCC2 | -2% | 0.33
41 | C[C@@H]1CCC[C@H](C)N1CC(=O)NCCn1ccnc1 | -7% | 1.04
42 | NC(=O)c1ncc(NS(=O)(=O)c2ccc3c(c2)CCCC3)s1 | -9% | 1.16
43 | CN1CCN(Cc2ccc3ccccc3c2)CCC1=O | -10% | 1.38
44 | CCOc1cncc(N(C)Cc2ncnn2C)n1 | 0% | -0.02
45 | CC(C)c1cc(CN(CCN(C)C)C[C@H]2CCCO2)on1 | 3% | -0.53
46 | O=C(NS(=O)(=O)C1CC2CCC1CC2)C1CC1c1ccc(F)c(F)c1 (configuration not stated) | -6% | 0.95
47 | Cc1ccc(Cn2cccc2C(=O)C(=O)Nc2ccc(F)c(F)c2)cc1C | -15% | 1.43
48 | O=S(=O)(CCCc1cn[nH]c1)Cc1cc(Cl)ccc1Cl | 2% | -0.4
49 | COc1cc(-c2ccc(C(N)=O)o2)c(Cl)cn1 | -2% | 0.32
50 | Cc1ccc(OCc2nc(CC3CCN(C)CC3)nn2CC(=O)O)cc1C | 3% | -0.35
51 | COCc1ccccc1S(=O)(=O)Nc1nc([C@H](C)OC)ns1 | -4% | 0.51
52 | COc1ccc(N2C(=O)[C@@H]3CCCN3[C@H]2c2ccc(Cl)cc2)cc1Cl | -4% | 0.58
53 | CCCC(O)(CCC)CC(=O)N1CCN(C(=O)OCC)CC1 | -7% | 0.63
54 | CC(C)c1noc(CN(C)[C@@H](C)c2cccs2)n1 | -13% | 1.28
55 | Cc1ccc(-c2csc(-c3cnccn3)n2)cc1 | -2% | 0.33
56 | CCc1nccn1CC(=O)Nc1cc(C)nn1C | 31% | -4.46

Source: ChEMBL document CHEMBL4888484, “Replenishing the malaria drug discovery pipeline: Screening and hit evaluation of the MMV Hit Generation Library 1 (HGL1) against asexual blood stage Plasmodium falciparum ,using a nano luciferase reporter read-out” (2022)
